The source gives no read counts; variants with many changes may rest on few reads.
B1: CPEB3 Ribozyme (parent)
chain: UAACAGGGGGCCACAGCAGAAGCGUUCACGUCGCAGCCCCUGUCAGAUUCUGGUGAAUCUGCGAAUUCUGCUGUAUAUCUC

Variants of: B1
Assay: self-cleavage, relative activity (ratio to wild type); higher = more cleavage; in vitro, sequencing
How it was run: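 Libraries of CPEB3 self-cleaving ribozyme mutants came from rounds of error-prone PCR and carried barcodes, which DNA sequencing matched to variants. In vitro transcription used T7 RNA polymerase at 37°C for 5 hours, with a further 15 min in DNase I before EDTA stopped the reaction; the ribozymes cleaved during both steps. The RNA was reverse transcribed with template switching and sequenced on Illumina. Relative activity is the cleaved/total read fraction of a variant divided by that of the unmutated ribozyme, averaged over three batches with at least 5 reads.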

Row | Variant | self-cleavage
1 | C4U G7A A35G U51C A57G | 0.54
2 | C4U G7U A47G A75G | 0.05
3 | C4U G8A U54C U66C | 0.05
4 | C4U G9U A15G U51C G53C | 0.4
5 | C4U G9U A28U U54C U80C | 0.12
6 | C4U G10A A13G A56G | 0.14
7 | C4U G10A C39U U48C C62U | 0.06
8 | C4U G10C A64G U78C | 0.32
9 | C4U G22C A28U A35G A64G U78C | 0.08
10 | C4U G24A A47C | 0.25
11 | C4U G30C G46C A57U G63A | 0.22
12 | C4U G33A C40U U72C | 0.35
13 | C4U G33C G53C A64G | 0.14
14 | C4U G70A U72C | 0.64
15 | C4U U25C A28U C29A U67G | 0.17
16 | C4U U25C A35G A45G U69A U74C | 0.11
17 | C4U U25C C40U A56G | 0.24
18 | C4U U25C C50U U51C U54C | 0.42
19 | C4U U25C U41A U78C | 0.31
20 | C4U U25C U67C | 0.14
21 | C4U U26A A47U G55U A75G U80C | 0.11
22 | C4U U26A G30A U41A U58C U72A U76C | 0.1
23 | C4U U26C A47G U66A A75G | 0.28
24 | C4U U26C A56G U66A | 0.23

Row | Variant | self-cleavage
25 | C4U U26C G33A U76C | 0.45
26 | C4U U26C U69A U80C | 0.31
27 | C4U U31A U69C U72C G73U | 0.24
28 | C4U U31C A45U G70A | 0.47
29 | C4U U31C A56U U80C | 0.68
30 | C4U U31C A57G | 0.84
31 | C4U U31C U60C | 0.61
32 | C4U U31G U80C | 0.83
33 | C4U U41A U51C U54C U60C C62U | 0.27
34 | C4U U41C A45G U69A | 0.67
35 | C4U U41G A56G U74C | 0.46
36 | C4U U43C A47G U49C | 0.24
37 | C4U U49A A56G U80A | 0.96
38 | C4U U49C U51C | 0.75
39 | C4U U51G A56G A57G U74A | 1
40 | C4U U60C U69C | 0.7
41 | C4U U60C U78C | 0.54
42 | A5C A13G A21U U25C G30C G33A G42A | 0.06
43 | A5C A13G A56U U58A U66C | 0.23
44 | A5C A13G G24C A35G A45G | 0.43
45 | A5C A13G U31A U51A | 0.98
46 | A5C A13U A18G G22A U25C | 0.08
47 | A5C A13U A28C A57G U60A | 0.07
48 | A5C A13U C37G U67C U78A | 0.12

Row | Variant | self-cleavage
49 | A5C A13U U26C C39U U69A | 0.1
50 | A5C A15U A18G C44U A64U U78A | 0.09
51 | A5C A15U A20U U26A C29G C38A A64G | 0.45
52 | A5C A15U A35C U51C A57U C71A U78C | 0.04
53 | A5C A15U C29U A64U A77G | 0.15
54 | A5C A15U U41C | 0.68
55 | A5C A15U U43A U66A U69C | 0.21
56 | A5C A15U U49C U69C U72C U78C | 0.14
57 | A5C A18C A20G U25G U76A | 0.55
58 | A5C A18C A45C | 0.1
59 | A5C A18G A28G | 0.35
60 | A5C A18G C59U U72A U74C | 0.81
61 | A5C A18G U31A A65G U72C | 0.21
62 | A5C A18G U54A C62U | 0.35
63 | A5C A18G U54A U66C U78C | 0.18
64 | A5C A18U A64U A75G | 0.4
65 | A5C A18U C38U | 0.15
66 | A5C A20C U31C U60A | 0.51
67 | A5C A20G C34U U48C U66C U72A A75U | 0.02
68 | A5C A20U A56C | 0.16
69 | A5C A20U A75G | 0.16
70 | A5C A20U C44A A45G | 0.34
71 | A5C A20U U26C U60A | 0.34
72 | A5C A21G A28G U43A A64U U72C | 0.35

Row | Variant | self-cleavage
73 | A5C A21G A64U | 0.18
74 | A5C A21G U31C U43C U51C A65G U67A | 0.1
75 | A5C A21G U31C U43C U60C A65G U74C | 0.2
76 | A5C A21G U60C A65G | 0.14
77 | A5C A28G A35G U58C | 0.82
78 | A5C A35C U80G | 0.57
79 | A5C A35U A75U | 0.7
80 | A5C A45C U74A | 1.02
81 | A5C A45G U48C | 0.49
82 | A5C A45G U72C U78G | 0.42
83 | A5C A64G U74C A75G | 0.8
84 | A5C A64U U69C G73A | 0.22
85 | A5C A65G U72C | 0.63
86 | A5C C11U A18G U51C | 0.35
87 | A5C C11U A45U A57G C59U | 0.24
88 | A5C C12G A21G U41A C68A | 0.1
89 | A5C C12U A13U U48C U69A U72C | 0.27
90 | A5C C14U U25C A56G | 0.44
91 | A5C C17A A18G U49G A65G | 0.03
92 | A5C C17U A28G A35G A47G | 0.57
93 | A5C C23U A56G | 0.36
94 | A5C C34G U43C | 0.44
95 | A5C C37G U41C | 0.8
96 | A5C C37U A65G | 0.31

Row | Variant | self-cleavage
97 | A5C C44A U48A U78C | 0.15
98 | A5C C44U G53C U54C A64U | 0.28
99 | A5C C62A A77G | 0.27
100 | A5C C71U U78C | 0.33
101 | A5C G6A A64G U66C U69A U72C A77U | 0.12
102 | A5C G6C U25C U67C | 0.08
103 | A5C G6C U80C | 0.63
104 | A5C G7A U54C U72C | 0.51
105 | A5C G8A A13U A21G | 0.13
106 | A5C G8A A21G | 0.64
107 | A5C G8U A21G A35U | 0.17
108 | A5C G9A A15G | 0.61
109 | A5C G9A U72C | 0.7
110 | A5C G9U A15G A28U | 0.48
111 | A5C G9U A21G U25A A28U | 0.31
112 | A5C G9U A28U A45U | 0.23
113 | A5C G10A A15G C40U U43C U54A | 0.46
114 | A5C G10A A56G U76A | 0.37
115 | A5C G10A A64U A65G U74C U80A | 0.05
116 | A5C G10A U25C U72C | 0.38
117 | A5C G19A U31A A45G U60C | 0.03
118 | A5C G22A G30A A35U | 0.1
119 | A5C G24A U54C | 0.18
120 | A5C G30A C37G A77U | 0.18

Row | Variant | self-cleavage
121 | A5C G42A G53C | 0.45
122 | A5C G42A U48C | 0.06
123 | A5C U25C A35C G42U A64U | 0.3
124 | A5C U25C A45U U49A G52C U80A | 0.03
125 | A5C U25C A47G U67C | 0.43
126 | A5C U25C A65U | 0.29
127 | A5C U25C U48C | 0.11
128 | A5C U25G U58C U74C | 0.36
129 | A5C U31A A35G U49A U67C G70A U76C | 0.58
130 | A5C U31A A57G | 0.51
131 | A5C U31A G46U G52C A64G | 0.22
132 | A5C U31A U48C U51A | 0.19
133 | A5C U31C A35U A47U U49A U74C | 0.05
134 | A5C U31C U48C U51C U80C | 0.3
135 | A5C U31C U67C U78C U80A | 0.19
136 | A5C U41A A57U | 0.23
137 | A5C U41A A64G G73A U80C | 0.12
138 | A5C U41A U69C | 0.25
139 | A5C U43A A64U U72C | 0.51
140 | A5C U43C A45G A47G | 0.08
141 | A5C U48C G73C | 1.1
142 | A5C U48C U51C | 0.4
143 | A5C U48C U69C U72C U78G | 0.23
144 | A5C U49A U51A U58C | 0.1

Row | Variant | self-cleavage
145 | A5C U54C U60C U72C U80G | 0.79
146 | A5C U58C U80A C81U | 0.88
147 | A5C U67C U76C | 0.26
148 | A5C U72A U78C | 0.86
149 | A5C U74A U78C | 1.01
150 | A5C U74C U80A | 1.15
151 | A5C U74C U80C | 1.17
152 | A5C U78C U80C | 0.55
153 | A5G A13C A20G A21G | 0.68
154 | A5G A13C C44A U48C U69A | 0.08
155 | A5G A13C U26C G73U U76C | 0.67
156 | A5G A13C U41C A75G | 0.36
157 | A5G A13G A15C U25A U26A U66C U76C | 0.34
158 | A5G A13G A15C U67C U78C | 0.08
159 | A5G A13G A18G | 0.23
160 | A5G A13G A18G C40G | 0.23
161 | A5G A13G A18G G33C U43C U49A | 0.3
162 | A5G A13G A18G U26A U48C A56G | 0.17
163 | A5G A13G A18G U26C G33A U67C | 0.38
164 | A5G A13G A18G U58C | 0.13
165 | A5G A13G A18U A57G A77G | 0.25
166 | A5G A13G A20G A21U A35G U41C | 0
167 | A5G A13G A20G C39G G42A U60C | 0.29

— the RNAGym collection of RNA variant scans (doi:10.1093/nar/gkz1192)
